These are yes or no findings as the source states them, for the method shown. For some of these results: In cells and extracts the contact can be indirect. Some results given as binding are weak or reduced against the parent protein; the word gives no strength. For some of these results: Tags and fused reporters may be left off the sequences shown.
T1: FLAG-CEP131 (human) (UniProt Q9UPN4)
T1 sequence: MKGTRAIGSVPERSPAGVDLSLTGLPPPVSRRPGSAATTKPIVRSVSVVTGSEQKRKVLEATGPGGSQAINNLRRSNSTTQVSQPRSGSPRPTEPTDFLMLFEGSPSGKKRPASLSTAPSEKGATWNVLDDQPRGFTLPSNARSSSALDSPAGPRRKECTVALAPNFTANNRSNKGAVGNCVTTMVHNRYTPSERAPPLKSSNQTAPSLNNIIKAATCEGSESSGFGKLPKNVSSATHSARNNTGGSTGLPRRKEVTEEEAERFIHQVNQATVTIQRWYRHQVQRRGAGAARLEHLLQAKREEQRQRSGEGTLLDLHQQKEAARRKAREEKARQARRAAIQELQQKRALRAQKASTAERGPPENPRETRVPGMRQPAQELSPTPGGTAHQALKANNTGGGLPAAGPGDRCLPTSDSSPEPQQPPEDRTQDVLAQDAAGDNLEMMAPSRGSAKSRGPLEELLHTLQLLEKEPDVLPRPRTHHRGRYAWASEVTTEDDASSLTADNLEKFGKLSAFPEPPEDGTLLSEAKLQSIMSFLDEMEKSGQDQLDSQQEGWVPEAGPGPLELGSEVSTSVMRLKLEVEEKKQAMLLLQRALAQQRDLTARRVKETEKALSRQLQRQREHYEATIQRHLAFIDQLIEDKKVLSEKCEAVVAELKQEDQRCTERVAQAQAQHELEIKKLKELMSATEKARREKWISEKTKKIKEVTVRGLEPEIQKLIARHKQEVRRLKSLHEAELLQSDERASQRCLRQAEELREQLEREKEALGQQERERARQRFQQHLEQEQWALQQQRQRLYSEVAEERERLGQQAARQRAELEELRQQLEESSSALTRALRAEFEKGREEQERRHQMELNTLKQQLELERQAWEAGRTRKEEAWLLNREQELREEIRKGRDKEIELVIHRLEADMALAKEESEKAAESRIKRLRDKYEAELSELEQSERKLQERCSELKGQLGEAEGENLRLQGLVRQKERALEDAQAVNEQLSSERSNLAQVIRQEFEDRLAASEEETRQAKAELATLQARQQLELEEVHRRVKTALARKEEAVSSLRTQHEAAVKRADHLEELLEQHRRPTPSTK

Sequences of proteins named here, by UniProt entry; tags and fusion partners are left off.
UniProt O43303: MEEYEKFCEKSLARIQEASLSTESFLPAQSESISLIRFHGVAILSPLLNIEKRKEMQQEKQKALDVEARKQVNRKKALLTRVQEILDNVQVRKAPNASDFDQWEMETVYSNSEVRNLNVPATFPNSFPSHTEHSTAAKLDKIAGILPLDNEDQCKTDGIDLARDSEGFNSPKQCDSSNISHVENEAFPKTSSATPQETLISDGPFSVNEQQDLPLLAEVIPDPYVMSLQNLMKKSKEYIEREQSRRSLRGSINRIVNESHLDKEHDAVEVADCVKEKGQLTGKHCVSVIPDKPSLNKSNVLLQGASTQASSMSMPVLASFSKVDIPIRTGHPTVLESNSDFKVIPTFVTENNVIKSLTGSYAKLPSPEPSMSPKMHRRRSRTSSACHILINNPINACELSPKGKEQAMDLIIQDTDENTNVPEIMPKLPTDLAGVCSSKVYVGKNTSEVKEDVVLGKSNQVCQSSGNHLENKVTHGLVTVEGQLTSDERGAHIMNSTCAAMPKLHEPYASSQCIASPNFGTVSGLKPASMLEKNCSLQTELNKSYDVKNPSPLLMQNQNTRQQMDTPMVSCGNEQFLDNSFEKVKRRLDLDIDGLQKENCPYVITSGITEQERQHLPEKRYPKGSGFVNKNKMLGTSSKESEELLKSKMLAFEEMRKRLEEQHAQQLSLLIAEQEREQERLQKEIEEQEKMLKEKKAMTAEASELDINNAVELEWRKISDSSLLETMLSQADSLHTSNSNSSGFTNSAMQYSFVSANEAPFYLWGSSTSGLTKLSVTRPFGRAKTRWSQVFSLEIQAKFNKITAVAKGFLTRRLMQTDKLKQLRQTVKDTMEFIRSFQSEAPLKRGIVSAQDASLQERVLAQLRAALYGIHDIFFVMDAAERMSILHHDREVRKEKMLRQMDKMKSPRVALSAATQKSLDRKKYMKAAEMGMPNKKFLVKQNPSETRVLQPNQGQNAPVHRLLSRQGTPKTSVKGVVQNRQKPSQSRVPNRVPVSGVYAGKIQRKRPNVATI
UniProt Q15154: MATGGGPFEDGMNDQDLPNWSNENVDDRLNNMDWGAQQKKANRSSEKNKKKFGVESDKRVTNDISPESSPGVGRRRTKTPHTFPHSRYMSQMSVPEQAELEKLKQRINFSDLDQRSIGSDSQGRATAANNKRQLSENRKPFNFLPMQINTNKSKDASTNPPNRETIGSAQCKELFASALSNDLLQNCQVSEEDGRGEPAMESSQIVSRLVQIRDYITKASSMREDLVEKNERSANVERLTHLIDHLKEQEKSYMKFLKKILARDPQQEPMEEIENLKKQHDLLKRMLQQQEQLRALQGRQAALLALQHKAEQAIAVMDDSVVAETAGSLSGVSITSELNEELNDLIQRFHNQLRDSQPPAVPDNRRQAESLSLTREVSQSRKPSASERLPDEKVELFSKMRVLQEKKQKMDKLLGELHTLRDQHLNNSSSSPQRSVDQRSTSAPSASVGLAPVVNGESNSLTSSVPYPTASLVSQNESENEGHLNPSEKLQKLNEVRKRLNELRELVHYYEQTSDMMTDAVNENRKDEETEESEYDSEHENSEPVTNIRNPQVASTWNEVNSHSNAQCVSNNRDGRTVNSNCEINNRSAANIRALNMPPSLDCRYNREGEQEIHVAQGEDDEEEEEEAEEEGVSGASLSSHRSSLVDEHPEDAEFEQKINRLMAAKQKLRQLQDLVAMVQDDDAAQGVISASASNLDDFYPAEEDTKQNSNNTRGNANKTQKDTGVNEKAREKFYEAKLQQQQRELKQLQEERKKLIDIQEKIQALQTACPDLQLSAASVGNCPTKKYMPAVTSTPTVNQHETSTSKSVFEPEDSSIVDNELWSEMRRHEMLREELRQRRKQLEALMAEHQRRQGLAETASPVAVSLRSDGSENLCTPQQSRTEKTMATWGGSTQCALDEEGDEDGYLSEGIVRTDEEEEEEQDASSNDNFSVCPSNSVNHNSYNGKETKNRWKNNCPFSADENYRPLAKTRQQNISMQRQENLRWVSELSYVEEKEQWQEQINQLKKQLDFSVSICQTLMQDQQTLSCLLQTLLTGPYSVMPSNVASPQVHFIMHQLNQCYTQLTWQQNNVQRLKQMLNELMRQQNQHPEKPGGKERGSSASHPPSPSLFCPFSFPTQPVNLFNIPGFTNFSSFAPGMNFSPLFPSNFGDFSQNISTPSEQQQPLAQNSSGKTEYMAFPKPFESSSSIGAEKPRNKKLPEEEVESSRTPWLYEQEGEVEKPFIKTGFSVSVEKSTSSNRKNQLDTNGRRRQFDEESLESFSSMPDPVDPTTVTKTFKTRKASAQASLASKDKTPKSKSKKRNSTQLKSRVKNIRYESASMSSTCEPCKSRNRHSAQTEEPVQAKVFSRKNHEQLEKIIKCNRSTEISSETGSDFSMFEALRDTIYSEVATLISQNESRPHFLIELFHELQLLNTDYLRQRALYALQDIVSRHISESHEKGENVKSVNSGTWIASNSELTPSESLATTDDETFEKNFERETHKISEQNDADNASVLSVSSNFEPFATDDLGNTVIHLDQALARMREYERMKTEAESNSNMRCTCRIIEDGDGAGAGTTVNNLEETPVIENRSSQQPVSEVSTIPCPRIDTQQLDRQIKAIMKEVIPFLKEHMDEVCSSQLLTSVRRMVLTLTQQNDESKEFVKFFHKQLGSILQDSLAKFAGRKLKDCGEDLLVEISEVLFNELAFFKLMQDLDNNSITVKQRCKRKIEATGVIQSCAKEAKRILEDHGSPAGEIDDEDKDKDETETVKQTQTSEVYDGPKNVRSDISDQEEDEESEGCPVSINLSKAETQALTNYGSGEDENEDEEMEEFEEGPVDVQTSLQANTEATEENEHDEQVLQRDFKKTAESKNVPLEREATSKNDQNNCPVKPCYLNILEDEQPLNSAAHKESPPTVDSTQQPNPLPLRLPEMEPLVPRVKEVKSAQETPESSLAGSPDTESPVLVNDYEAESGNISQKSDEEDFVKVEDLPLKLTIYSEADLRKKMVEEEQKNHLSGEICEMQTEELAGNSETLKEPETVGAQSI
UniProt O14744: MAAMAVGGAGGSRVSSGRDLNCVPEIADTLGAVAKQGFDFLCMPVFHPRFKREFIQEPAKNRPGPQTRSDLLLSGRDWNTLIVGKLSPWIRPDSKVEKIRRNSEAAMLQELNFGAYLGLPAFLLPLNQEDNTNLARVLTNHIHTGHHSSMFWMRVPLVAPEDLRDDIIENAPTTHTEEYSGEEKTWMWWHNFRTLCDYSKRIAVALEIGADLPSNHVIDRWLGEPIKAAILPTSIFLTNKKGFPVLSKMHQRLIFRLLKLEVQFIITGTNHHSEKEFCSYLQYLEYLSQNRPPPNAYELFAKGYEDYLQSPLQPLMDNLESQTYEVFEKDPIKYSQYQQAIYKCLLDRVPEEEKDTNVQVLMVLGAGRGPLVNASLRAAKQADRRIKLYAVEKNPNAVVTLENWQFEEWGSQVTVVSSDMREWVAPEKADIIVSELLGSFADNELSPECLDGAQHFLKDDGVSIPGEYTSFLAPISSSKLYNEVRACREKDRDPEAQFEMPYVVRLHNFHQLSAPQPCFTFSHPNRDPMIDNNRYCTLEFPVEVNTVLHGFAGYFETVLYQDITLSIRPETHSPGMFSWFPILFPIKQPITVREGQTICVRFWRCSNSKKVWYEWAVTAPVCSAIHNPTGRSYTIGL

T2: GST-CEP131, full length (human) (UniProt Q9UPN4)
T2 sequence: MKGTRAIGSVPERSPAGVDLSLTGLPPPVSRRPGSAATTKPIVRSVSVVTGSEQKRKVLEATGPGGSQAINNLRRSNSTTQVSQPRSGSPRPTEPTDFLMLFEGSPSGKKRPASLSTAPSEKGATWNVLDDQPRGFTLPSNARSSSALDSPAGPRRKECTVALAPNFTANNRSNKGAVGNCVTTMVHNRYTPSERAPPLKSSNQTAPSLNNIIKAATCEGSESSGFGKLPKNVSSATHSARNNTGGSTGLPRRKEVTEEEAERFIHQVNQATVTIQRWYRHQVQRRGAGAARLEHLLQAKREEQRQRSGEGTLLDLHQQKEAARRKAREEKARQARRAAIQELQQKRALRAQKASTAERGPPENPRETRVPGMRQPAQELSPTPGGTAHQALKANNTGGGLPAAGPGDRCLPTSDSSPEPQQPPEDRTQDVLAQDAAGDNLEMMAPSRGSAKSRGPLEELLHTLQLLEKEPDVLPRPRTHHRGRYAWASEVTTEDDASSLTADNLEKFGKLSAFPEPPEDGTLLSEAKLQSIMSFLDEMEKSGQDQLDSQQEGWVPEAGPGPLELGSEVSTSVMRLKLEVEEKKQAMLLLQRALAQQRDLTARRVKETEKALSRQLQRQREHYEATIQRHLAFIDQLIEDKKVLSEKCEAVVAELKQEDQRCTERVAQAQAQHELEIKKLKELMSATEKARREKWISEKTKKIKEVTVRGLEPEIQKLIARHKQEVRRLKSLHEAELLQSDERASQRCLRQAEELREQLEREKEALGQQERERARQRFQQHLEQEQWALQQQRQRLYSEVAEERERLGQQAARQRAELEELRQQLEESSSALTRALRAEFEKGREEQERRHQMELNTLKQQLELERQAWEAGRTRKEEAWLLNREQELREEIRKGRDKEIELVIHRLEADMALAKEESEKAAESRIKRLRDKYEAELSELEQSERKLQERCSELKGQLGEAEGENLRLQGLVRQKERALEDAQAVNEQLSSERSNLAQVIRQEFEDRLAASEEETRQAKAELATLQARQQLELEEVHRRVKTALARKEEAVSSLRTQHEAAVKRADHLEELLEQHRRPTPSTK


Columns and labels:
[1] = molecular target: T1, FLAG-CEP131 (human); assay: SEC; FLAG-CEP131 anti-FLAG affinity eluate from HeLa cells fractionated on Superose 6 gel filtration; fractions immunoblotted (Supplementary Fig. 1b)
[2] = molecular target: ubiquitin-specific peptidase 9, X-linked (USP9X), endogenous (human (endogenous in HeLa, MCF-7, HEK293T, U2OS)) (UniProt Q93008); assay: co-IP; validation of interactors identified by mass spectrometry (Supplementary Fig. 1a); cells and bait not given
[3] = molecular target: T2, GST-CEP131, full length (human); assay: pull-down; GST-tagged CEP131 (full length or deletion mutants) purified from bacteria with His-tagged USP9X deletion mutants purified from Sf9 cells; which was held on beads is not stated; both purified
[4] = molecular target: CP110, centrosomal protein, endogenous (human (endogenous in HeLa, MCF-7, HEK293T, U2OS)) (UniProt O43303); assay: co-IP; endogenous proteins; whole-cell lysates of HeLa, MCF-7, HEK293T and U2OS cells in NETN buffer (50 mM Tris-HCl pH 8.0, 150 mM NaCl, 0.2% Nonidet P-40, 2 mM EDTA); protein G magnetic beads; immunoblot; also U2OS cells synchronized by double-thymidine block and released (association detected primarily in S and G2 phases)

| binding [1] | binding [2] | Molecule | other results |
| --- | --- | --- | --- |
| binds | – | PCM1 (pericentriolar material 1), endogenous (from UniProt Q15154 1-2024) | – |
| – | binds | PRMT5 (from UniProt O14744 1-637) (enzyme) | – |
| – | binds | PPM1B (enzyme, UniProt O75688 1-479) MGAFLDKPKTEKHNAHGAGNGLRYGLSSMQGWRVEMEDAHTAVVGIPHGLEDWSFFAVYDGHAGSRVANYCSTHLLEHITTNEDFRAAGKSGSALELSVENVKNGIRTGFLKIDEYMRNFSDLRNGMDRSGSTAVGVMISPKHIYFINCGDSRAVLYRNGQVCFSTQDHKPCNPREKERIQNAGGSVMIQRVNGSLAVSRALGDYDYKCVDGKGPTEQLVSPEPEVYEILRAEEDEFIILACDGIWDVMSNEELCEYVKSRLEVSDDLENVCNWVVDTCLHKGSRDNMSIVLVCFSNAPKVSDEAVKKDSELDKHLESRVEEIMEKSGEEGMPDLAHVMRILSAENIPNLPPGGGLAGKRNVIEAVYSRLNPHRESDGASDEAEESGSQGKLVEALRQMRINHRGNYRQLLEEMLTSYRLAKVEGEESPAEPAATATSSNSDAGNPVTMQESHTESESGLAELDSSNEDAGTKMSGEKI | – |
| – | – | His-tagged USP9X/M (domain or fragment, UniProt Q93008 611-1553) ALVTLVAENLATYMESMRLYARDHEDYDPQTVRLGSRYSHVQEVQERLNFLRFLLKDGQLWLCAPQAKQIWKCLAENAVYLCDREACFKWYSKLMGDEPDLDPDINKDFFESNVLQLDPSLLTENGMKCFERFFKAVNCREGKLVAKRRAYMMDDLELIGLDYLWRVVIQSNDDIASRAIDLLKEIYTNLGPRLQVNQVVIHEDFIQSCFDRLKASYDTLCVLDGDKDSVNCARQEAVRMVRVLTVLREYINECDSDYHEERTILPMSRAFRGKHLSFVVRFPNQGRQVDDLEVWSHTNDTIGSVRRCILNRIKANVAHTKIELFVGGELIDPADDRKLIGQLNLKDKSLITAKLTQISSNMPSSPDSSSDSSTGSPGNHGNHYSDGPNPEVESCLPGVIMSLHPRYISFLWQVADLGSSLNMPPLRDGARVLMKLMPPDSTTIEKLRAICLDHAKLGESSLSPSLDSLFFGPSASQVLYLTEVVYALLMPAGAPLADDSSDFQFHFLKSGGLPLVLSMLTRNNFLPNADMETRRGAYLNALKIAKLLLTAIGYGHVRAVAEACQPGVEGVNPMTQINQVTHDQAVVLQSALQSIPNPSSECMLRNVSVRLAQQISDEASRYMPDICVIRAIQKIIWASGCGSLQLVFSPNEEITKIYEKTNAGNEPDLEDEQVCCEALEVMTLCFALIPTALDALSKEKAWQTFIIDLLLHCHSKTVRQVAQEQFFLMCTRCCMGHRPLLFFITLLFTVLGSTARERAKHSGDYFTLLRHLLNYAYNSNINVPNAEVLLNNEIDWLKRIRDDVKRTGETGIEETILEGHLGVTKELLAFQTSEKKFHIGCEKGGANLIKELIDDFIFPASNVYLQYMRNGELPAEQAIPVCGSPPTINAGFELLVALAVGCVRNLKQIVDSLTEMYYIGTAITTCEALTEWEYLPPVGPRPP | binding [3]: binds |
| no binding | – | USP33, deubiquitinase, endogenous (enzyme, UniProt Q8TEY7 1-942) MTGSNSHITILTLKVLPHFESLGKQEKIPNKMSAFRNHCPHLDSVGEITKEDLIQKSLGTCQDCKVQGPNLWACLENRCSYVGCGESQVDHSTIHSQETKHYLTVNLTTLRVWCYACSKEVFLDRKLGTQPSLPHVRQPHQIQENSVQDFKIPSNTTLKTPLVAVFDDLDIEADEEDELRARGLTGLKNIGNTCYMNAALQALSNCPPLTQFFLDCGGLARTDKKPAICKSYLKLMTELWHKSRPGSVVPTTLFQGIKTVNPTFRGYSQQDAQEFLRCLMDLLHEELKEQVMEVEEDPQTITTEETMEEDKSQSDVDFQSCESCSNSDRAENENGSRCFSEDNNETTMLIQDDENNSEMSKDWQKEKMCNKINKVNSEGEFDKDRDSISETVDLNNQETVKVQIHSRASEYITDVHSNDLSTPQILPSNEGVNPRLSASPPKSGNLWPGLAPPHKKAQSASPKRKKQHKKYRSVISDIFDGTIISSVQCLTCDRVSVTLETFQDLSLPIPGKEDLAKLHSSSHPTSIVKAGSCGEAYAPQGWIAFFMEYVKRFVVSCVPSWFWGPVVTLQDCLAAFFARDELKGDNMYSCEKCKKLRNGVKFCKVQNFPEILCIHLKRFRHELMFSTKISTHVSFPLEGLDLQPFLAKDSPAQIVTYDLLSVICHHGTASSGHYIAYCRNNLNNLWYEFDDQSVTEVSESTVQNAEAYVLFYRKSSEEAQKERRRISNLLNIMEPSLLQFYISRQWLNKFKTFAEPGPISNNDFLCIHGGVPPRKAGYIEDLVLMLPQNIWDNLYSRYGGGPAVNHLYICHTCQIEAEKIEKRRKTELEIFIRLNRAFQKEDSPATFYCISMQWFREWESFVKGKDGDPPGPIDNTKIAVTKCGNVMLRQGADSGQISEETWNFLQSIYGGGPEVILRPPVVHVDPDILQAEEKIEVETRSL | binding [4]: binds |
| – | binds | IPO5 (protein, UniProt O00410 1-1097) MAAAAAEQQQFYLLLGNLLSPDNVVRKQAEETYENIPGQSKITFLLQAIRNTTAAEEARQMAAVLLRRLLSSAFDEVYPALPSDVQTAIKSELLMIIQMETQSSMRKKVCDIAAELARNLIDEDGNNQWPEGLKFLFDSVSSQNVGLREAALHIFWNFPGIFGNQQQHYLDVIKRMLVQCMQDQEHPSIRTLSARATAAFILANEHNVALFKHFADLLPGFLQAVNDSCYQNDDSVLKSLVEIADTVPKYLRPHLEATLQLSLKLCGDTSLNNMQRQLALEVIVTLSETAAAMLRKHTNIVAQTIPQMLAMMVDLEEDEDWANADELEDDDFDSNAVAGESALDRMACGLGGKLVLPMIKEHIMQMLQNPDWKYRHAGLMALSAIGEGCHQQMEGILNEIVNFVLLFLQDPHPRVRYAACNAVGQMATDFAPGFQKKFHEKVIAALLQTMEDQGNQRVQAHAAAALINFTEDCPKSLLIPYLDNLVKHLHSIMVLKLQELIQKGTKLVLEQVVTSIASVADTAEEKFVPYYDLFMPSLKHIVENAVQKELRLLRGKTIECISLIGLAVGKEKFMQDASDVMQLLLKTQTDFNDMEDDDPQISYMISAWARMCKILGKEFQQYLPVVMGPLMKTASIKPEVALLDTQDMENMSDDDGWEFVNLGDQQSFGIKTAGLEEKSTACQMLVCYAKELKEGFVEYTEQVVKLMVPLLKFYFHDGVRVAAAESMPLLLECARVRGPEYLTQMWHFMCDALIKAIGTEPDSDVLSEIMHSFAKCIEVMGDGCLNNEHFEELGGILKAKLEEHFKNQELRQVKRQDEDYDEQVEESLQDEDDNDVYILTKVSDILHSIFSSYKEKVLPWFEQLLPLIVNLICPHRPWPDRQWGLCIFDDVIEHCSPASFKYAEYFLRPMLQYVCDNSPEVRQAAAYGLGVMAQYGGDNYRPFCTEALPLLVRVIQSADSKTKENVNATENCISAVGKIMKFKPDCVNVEEVLPHWLSWLPLHEDKEEAVQTFNYLCDLIESNHPIVLGPNNTNLPKIFSIIAEGEMHEAIKHEDPCAKRLANVVRQVQTSGGLWTECIAQLSPEQQAAIQELLNSA | – |

From paper PMC5380967
